For assay [1], the target named is human PSMA (human, UniProt Q04609). Briefly: SPR.
Assay [2] has as its target T1, cynomolgus monkey PSMA (cynomolgus monkey, UniProt A0A2K5VNZ0 44-750).
T1 chain: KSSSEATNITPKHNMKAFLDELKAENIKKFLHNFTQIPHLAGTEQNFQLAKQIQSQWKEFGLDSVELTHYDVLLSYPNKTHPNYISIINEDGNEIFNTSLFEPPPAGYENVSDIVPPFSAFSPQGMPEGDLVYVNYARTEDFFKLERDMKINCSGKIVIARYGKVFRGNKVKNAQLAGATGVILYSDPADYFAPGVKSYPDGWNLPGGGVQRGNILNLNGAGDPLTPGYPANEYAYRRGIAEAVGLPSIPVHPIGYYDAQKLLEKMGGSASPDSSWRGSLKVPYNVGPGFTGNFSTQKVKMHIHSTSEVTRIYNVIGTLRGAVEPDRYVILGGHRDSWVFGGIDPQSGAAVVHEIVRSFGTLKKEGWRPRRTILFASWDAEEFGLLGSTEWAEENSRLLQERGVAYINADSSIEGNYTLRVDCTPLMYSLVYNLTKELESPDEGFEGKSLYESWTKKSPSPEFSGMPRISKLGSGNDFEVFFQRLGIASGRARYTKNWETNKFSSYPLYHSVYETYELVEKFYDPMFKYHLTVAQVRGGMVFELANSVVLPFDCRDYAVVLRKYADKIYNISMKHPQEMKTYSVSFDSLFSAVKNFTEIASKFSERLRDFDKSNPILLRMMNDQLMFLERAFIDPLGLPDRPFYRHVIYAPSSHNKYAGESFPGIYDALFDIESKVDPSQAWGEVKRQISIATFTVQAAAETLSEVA
Briefly: SPR.

From patent US20230059690A1 (published 2023) come the findings set out here.

UniProt Q04609, sequence (Q04609 44-750): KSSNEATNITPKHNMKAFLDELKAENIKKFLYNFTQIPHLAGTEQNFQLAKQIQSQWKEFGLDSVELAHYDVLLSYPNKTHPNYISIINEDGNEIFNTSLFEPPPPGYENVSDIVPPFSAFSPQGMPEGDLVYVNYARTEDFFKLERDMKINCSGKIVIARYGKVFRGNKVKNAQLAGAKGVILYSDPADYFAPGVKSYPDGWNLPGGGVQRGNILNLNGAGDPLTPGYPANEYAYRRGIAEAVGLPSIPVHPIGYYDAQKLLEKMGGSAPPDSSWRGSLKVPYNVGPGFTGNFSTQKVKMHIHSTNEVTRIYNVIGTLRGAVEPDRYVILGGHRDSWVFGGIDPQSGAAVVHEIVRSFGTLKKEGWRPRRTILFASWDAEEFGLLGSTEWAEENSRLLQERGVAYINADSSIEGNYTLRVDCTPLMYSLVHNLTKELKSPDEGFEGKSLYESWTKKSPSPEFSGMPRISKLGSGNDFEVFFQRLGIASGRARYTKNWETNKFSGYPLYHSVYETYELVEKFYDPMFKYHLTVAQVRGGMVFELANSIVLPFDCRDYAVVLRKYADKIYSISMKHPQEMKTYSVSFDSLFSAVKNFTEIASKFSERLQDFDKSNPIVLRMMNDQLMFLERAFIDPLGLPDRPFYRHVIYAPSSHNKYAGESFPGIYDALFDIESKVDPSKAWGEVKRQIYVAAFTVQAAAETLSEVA

B1: cHv75-2a7.G1(C99Y;L328C)k-AGL-01332-93 (other)
heavy: EVQLVESGGGLVQPGGSLRLSCAASGITFSNYWMSWVRQAPGKGLEWVANIKKDGSEKFYVDSVKGRFTISRDNAKNSLYLQINSLRAEDTAMYYCAREIQLYLQHWGQGTLVTVSSASTKGPSVFPLAPSSKSTSGGTAALGCLVKDYFPEPVTVSWNSGALTSGVHTFPAVLQSSGLYSLSSVVTVPSSSLGTQTYICNVNHKPSNTKVDKKV[human IgG1 Fc with L328C (EU numbers) omitted]
light: DIQMTQSPSSVSASVGGRVTITCRASQGISNWLAWYQQKPGKAPKLLIYAASSLQSGVPSRFSGSGSGTDFTLTISNLQPEDFASYYCQQANSFPLTFGGGTKVEIKRTVAAPSVFIFPPSDEQLKSGTASVVCLLNNFYPREAKVQWKVDNALQSGNSQESVTEQDSKDSTYSLSSTLTLSKADYEKHKVYACEVTHQGLSSPVTKSFNRGEC
modifications: AGL-01332-93 drug-linker conjugated (DAR 1.86). The examples do not state the site; the name points to the engineered cysteine L328C.
Usually Kd stands for the concentration at which binding is half-saturated. Turning to B1, the dissociation constant (Kd) in assay [1] was 17 nM; in assay [2], 35 nM.
